In the supplement of paper PMC9446081:
In all, about 39,000 compounds went through this assay and about 220 (0.56%) showed activity. The list shows a part of the results.

tested on: Escherichia coli K-12 BW25113; assay: relative growth (OD600 normalised to plate interquartile mean) (fraction); higher = less growth inhibition, active = 0.2 or less; conditions: 50 µM; LB; incubation time: overnight (16-24 h)
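Further: static incubation at 37 °C against the wild-type strain, values averaged over two biological replicates.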

| SMILES | relative growth |
| --- | --- |
| C[C@H](CO)N1C[C@H](C)[C@@H](CN(C)Cc2ccccc2C(F)(F)F)OCc2ccccc2-c2ccccc2C1=O | inactive: 1.04 |
| COCC#Cc1cnc2c(c1)C(=O)N([C@H](C)CO)C[C@@H](C)[C@@H](CN(C)C(=O)CN1CCOCC1)O2 | inactive: 0.983 |
| C[C@@H]1CCCCO[C@@H](CN(C)S(=O)(=O)c2ccc(F)cc2)[C@@H](C)CN([C@@H](C)CO)C(=O)c2cc(NC(=O)NC3CCCCC3)ccc2O1 | inactive: 0.973 |
| C[C@H]1CN([C@@H](C)CO)C(=O)Cc2cc(NC(=O)Cc3ccccc3)ccc2O[C@@H]1CN(C)S(=O)(=O)c1ccccc1 | inactive: 0.993 |
| O=C(O)c1ccc(N[C@@H]2O[C@H](CO)[C@@H](O)[C@@H]2O)cc1 | inactive: 0.978 |
| COc1ccc(NC(=O)N(C)C[C@H]2OCCCC[C@@H](C)Oc3ccc(NS(=O)(=O)c4ccc(F)cc4)cc3C(=O)N([C@H](C)CO)C[C@H]2C)cc1 | inactive: 0.998 |
| COc1ccc(NC(=O)Nc2cccc3c2O[C@@H](CN(C)Cc2ccc(C(F)(F)F)cc2)[C@H](C)CN([C@H](C)CO)C3=O)cc1 | inactive: 0.719 |
| C[C@@H]1CN([C@@H](C)CO)C(=O)Cc2cc(NC(=O)NC3CCCCC3)ccc2O[C@@H]1CN(C)Cc1ccc(Oc2ccccc2)cc1 | inactive: 1.03 |
| COc1ccc(NC(=O)N(C)C[C@H]2OCCCC[C@@H](C)Oc3ccc(NS(=O)(=O)c4c(C)noc4C)cc3C(=O)N([C@H](C)CO)C[C@@H]2C)cc1 | inactive: 0.999 |
| CO[C@H](CN(C)S(=O)(=O)c1ccc(F)cc1)[C@@H](C)CN([C@@H](C)CO)S(=O)(=O)c1cccc(Cl)c1 | inactive: 1.02 |
| COc1ccc(CNC(=O)C[C@H]2CC[C@H]3[C@@H](COc4ccc(NC(=O)C5CC5)cc4C(=O)N3C)O2)cc1 | inactive: 0.985 |
| Cc1cc(C(=O)Nc2cccc3c2O[C@H](CN(C)Cc2ccncc2)[C@H](C)CN([C@H](C)CO)C3=O)n(C)n1 | inactive: 1.01 |
| Cc1ccccc1S(=O)(=O)N1C[C@H](O)COC[C@H]2O[C@H](CC(=O)N3CCN(C)CC3)CC[C@@H]21 | inactive: 0.998 |
| CC1CC2C3CCC4=CC(=O)C=CC4(C)C3(F)C(O)CC2(C)C1(O)C(=O)CO (centres undefined) | inactive: 1.01 |
| O=C(N[C@@H]1CC[C@@H](CCNS(=O)(=O)c2ccc(F)cc2)O[C@H]1CO)C1CC1 | inactive: 1.01 |
| Cc1ccccc1S(=O)(=O)N1C[C@@H](O)COC[C@@H]2O[C@H](CC(=O)N3CCOCC3)CC[C@H]21 | inactive: 1.01 |
| O=C(O)c1cc2ccccc2c(Cc2c(O)c(C(=O)O)cc3ccccc23)c1O.OCCOCCN1CCN(C(c2ccccc2)c2ccc(Cl)cc2)CC1 | inactive: 1.17 |
| C[C@@H]1CN([C@H](C)CO)C(=O)Cc2cc(NS(C)(=O)=O)ccc2O[C@@H]1CN(C)S(=O)(=O)c1cccs1 | inactive: 0.992 |
| CN1CCN(C(=O)C[C@@H]2CC[C@@H](NC(=O)Cc3ccccn3)[C@@H](CO)O2)CC1 | inactive: 1 |
| C[C@@H]1CN([C@@H](C)CO)C(=O)c2cc(NC(=O)C3CC3)ccc2O[C@H]1CN(C)S(=O)(=O)c1ccc(Cl)cc1 | inactive: 1.02 |

| SMILES | relative growth |
| --- | --- |
| COc1ccc(cc1)S(=O)(=O)N1CC[C@]2(CC1)CN([C@H](CO)c1c2c2ccc(cc2n1C)OC)C(=O)CN(C)C | inactive: 0.982 |
| COc1ccc(NC(=O)N(C)C[C@@H]2Oc3ccc(NC(=O)Nc4cccc5ccccc45)cc3CC(=O)N([C@H](C)CO)C[C@H]2C)cc1 | inactive: 1.01 |
| O=C(C[C@H]1CC[C@H]2[C@@H](COC[C@H](O)CN2Cc2cccc(C(F)(F)F)c2)O1)NCCc1ccncc1 | inactive: 1.02 |
| COCC(=O)N[C@H]1C=C[C@@H](CC(=O)N2CCCCC2)O[C@@H]1CO | inactive: 0.971 |
| Cc1noc(C)c1NC(=O)Nc1ccc2c(c1)C(=O)N([C@H](C)CO)C[C@H](C)[C@H](CN(C)S(C)(=O)=O)O2 | inactive: 0.97 |
| C[C@@H]1CN([C@@H](C)CO)C(=O)c2c(c3ccccc3n2C)-c2ccccc2CO[C@H]1CN(C)C(=O)N[C@H](C)c1ccccc1 | inactive: 1.01 |
| C[C@H]1CN([C@@H](C)CO)C(=O)c2cc(NS(=O)(=O)c3cn(C)cn3)ccc2O[C@H]1CN(C)Cc1ccc(C(=O)O)cc1 | inactive: 0.99 |
| C[C@@H]1CN([C@H](C)CO)S(=O)(=O)c2ccc(-c3cncnc3)cc2O[C@@H]1CN(C)C(=O)NC1CCCC1 | inactive: 0.999 |
| COc1ccc(CN(C)C[C@@H]2Oc3c(NS(=O)(=O)c4cn(C)cn4)cccc3C(=O)N([C@@H](C)CO)C[C@H]2C)cc1 | inactive: 0.973 |
| C[C@@H]1CCCCO[C@@H](CN(C)CC2CCCCC2)[C@H](C)CN([C@H](C)CO)C(=O)c2cc(NC(=O)Nc3ccc(F)cc3)ccc2O1 | inactive: 0.967 |
| Cc1noc(C)c1S(=O)(=O)N(C)C[C@@H]1Oc2ccc(NC(=O)Nc3ccc4c(c3)OCO4)cc2CC(=O)N([C@@H](C)CO)C[C@H]1C | inactive: 1.01 |
| O=C(N/N=C/[C@@H](O)[C@H](O)[C@H](O)CO)c1ccccc1O | inactive: 0.979 |
| Cc1noc(C)c1NC(=O)N(C)C[C@@H]1Oc2c(NC(=O)C3CC3)cccc2C(=O)N([C@@H](C)CO)C[C@H]1C | inactive: 0.973 |
| Cc1ccc(S(=O)(=O)Nc2cccc3c2O[C@H](CN(C)S(=O)(=O)c2c(C)noc2C)[C@H](C)CN([C@H](C)CO)C3=O)cc1 | inactive: 0.999 |
| C[C@@H]1CCCCO[C@@H](CN(C)C(=O)Nc2ccc(C(F)(F)F)cc2)[C@H](C)CN([C@@H](C)CO)C(=O)c2cc(NS(C)(=O)=O)ccc2O1 | inactive: 0.937 |
| C[C@H](CO)N1C[C@H](C)[C@H](CN(C)C(=O)Nc2ccc3c(c2)OCO3)OCc2ccccc2-c2c(n(C)c3ccccc23)C1=O | inactive: 0.982 |
| C[C@H](CO)N1C[C@H](C)[C@@H](CN(C)Cc2ccc(Cl)c(Cl)c2)Oc2ccc(NS(=O)(=O)c3ccc(Cl)cc3)cc2C1=O | inactive: 1 |
| Cc1noc(C)c1NC(=O)N(C)C[C@@H]1Oc2ccc(NC(=O)CCN3CCOCC3)cc2CC(=O)N([C@H](C)CO)C[C@H]1C | inactive: 0.999 |
| CN1CCN(C(=O)C[C@H]2CC[C@H]3[C@@H](COc4ccc(NC(=O)c5cccs5)cc4C(=O)N3C)O2)CC1 | inactive: 1.01 |
| Cc1cc(O)n(CCCO)c(=O)c1C#N | inactive: 1.02 |

| SMILES | relative growth |
| --- | --- |
| C[C@H](CO)N1C[C@H](C)[C@@H](CN(C)C(=O)Nc2ccc(F)cc2)OCCCC[C@H](C)Oc2ccc(NS(=O)(=O)c3cccs3)cc2C1=O | inactive: 1 |
| CNC(=O)[C@H]1Cc2ccccc2N1C(=O)COC | inactive: 0.988 |
| Cc1ccc(S(=O)(=O)N(C)C[C@H]2OCCCC[C@@H](C)Oc3ccc(NS(C)(=O)=O)cc3C(=O)N([C@@H](C)CO)C[C@@H]2C)cc1 | inactive: 1.02 |
| C[C@@H]1CCCCO[C@@H](CN(C)Cc2ccc3c(c2)OCO3)[C@@H](C)CN([C@H](C)CO)C(=O)c2cc(NC(=O)NC3CCCCC3)ccc2O1 | inactive: 1.01 |
| C[C@H]1CN([C@@H](C)CO)C(=O)c2cc(NC(=O)Nc3cccc4ccccc34)ccc2O[C@@H]1CN(C)Cc1ccc(C(=O)Nc2ccccc2N)cc1 | inactive: 1.01 |
| C[C@H]1CCCCO[C@H](CN(C)S(=O)(=O)c2cccs2)[C@@H](C)CN([C@@H](C)CO)C(=O)c2cc(NC(=O)NC3CCCCC3)ccc2O1 | inactive: 1.01 |
| C[C@H](CO)N1C[C@H](C)[C@H](CN(C)Cc2ccc(C(F)(F)F)cc2)Oc2c(NC(=O)Nc3ccc(C(F)(F)F)cc3)cccc2C1=O | inactive: 1.01 |
| COCC#Cc1ccc2c(c1)O[C@@H](CN(C)C(=O)c1ccccc1)[C@@H](C)CN([C@@H](C)CO)S2(=O)=O | inactive: 0.95 |
| C[C@@H]1CN([C@H](C)CO)C(=O)c2cc(NC(=O)Cn3cnnn3)ccc2O[C@@H]1CN(C)S(C)(=O)=O | inactive: 1.01 |
| C[C@@H]1CN([C@H](C)CO)C(=O)c2cccc(NS(=O)(=O)c3ccc(F)cc3)c2O[C@@H]1CN(C)Cc1ccc(Oc2ccccc2)cc1 | inactive: 1 |
| COC[C@H](NC(=O)c1cnc(C)s1)C(=O)N[C@@H](COC)C(=O)N[C@@H](Cc1ccccc1)C(=O)[C@@]1(C)CO1 | inactive: 1.02 |
| CC(C)NC(=O)N(C)C[C@@H]1Oc2ccc(NC(=O)c3ccncc3)cc2CC(=O)N([C@@H](C)CO)C[C@@H]1C | inactive: 0.976 |
| CC(C)CC#Cc1cnc2c(c1)C(=O)N([C@H](C)CO)C[C@@H](C)[C@H](CN(C)C(=O)c1ccc3c(c1)OCO3)O2 | inactive: 1.01 |
| C[C@@H]1CCCCO[C@@H](CN(C)S(=O)(=O)c2cccs2)[C@@H](C)CN([C@H](C)CO)C(=O)c2cc(NC(=O)Cc3ccccc3)ccc2O1 | inactive: 1 |
| Cc1ccc(S(N)(=O)=O)cc1 | inactive: 1.04 |
| C[C@@H]1CCCCO[C@H](CN(C)C(=O)CCC(F)(F)F)[C@H](C)CN([C@@H](C)CO)C(=O)c2cc(NC(=O)Cc3ccccc3)ccc2O1 | inactive: 0.98 |
| C[C@@H]1CN([C@H](C)CO)C(=O)Cc2cc(NC(=O)NC3CCCCC3)ccc2O[C@@H]1CN(C)Cc1ccc(Oc2ccccc2)cc1 | inactive: 1.02 |
| Fc1ccc(CSc2nc3ccccc3[nH]2)c2ccccc12 | inactive: 0.951 |
| C[C@H](CO)N1C[C@H](C)[C@H](CN(C)S(=O)(=O)c2cn(C)cn2)Oc2ccc(NC(=O)Cc3ccccc3)cc2C1=O | inactive: 0.968 |
